According to PubChem BioAssay AID894 (National Center for Advancing Translational Sciences (NCATS), 2007):
The whole screen tested about 150,000 compounds, of which about 6,500 (4.3%) were called active. The shares of active, inactive and inconclusive entries below differ from those in the screen. The call rests on the fitted dose curve; in most records, active means well fitted inhibition curve with a large enough effect (not every such curve was filed as active); inconclusive means small, poorly fitted or top-dose-only effect, or another doubt; inactive means no such curve, though single readings can be large or run the other way. Potencies of inconclusive entries are left out as doubtful fits.

Biological target: 15-hydroxyprostaglandin dehydrogenase [NAD(+)] (Homo sapiens) (UniProt P15428)
Chain of UniProt P15428 (P15428 whole entry, looked up): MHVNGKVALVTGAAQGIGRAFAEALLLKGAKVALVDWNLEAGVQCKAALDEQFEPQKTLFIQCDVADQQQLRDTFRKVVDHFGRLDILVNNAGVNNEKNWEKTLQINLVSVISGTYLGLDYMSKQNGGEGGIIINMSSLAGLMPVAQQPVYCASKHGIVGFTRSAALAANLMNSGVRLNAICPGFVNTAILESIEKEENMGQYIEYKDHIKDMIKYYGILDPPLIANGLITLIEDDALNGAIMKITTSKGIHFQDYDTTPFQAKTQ
Experiment: qHTS Assay for Inhibitors of HPGD (15-Hydroxyprostaglandin Dehydrogenase)
Conditions: purified HPGD, NADH fluorescence kinetic, PGE2 substrate; activity change, negative = inhibition: active compounds read low
Method in brief: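 20 nM HPGD preincubated 15 min at room temperature with compound in 50 mM Tris-HCl pH 8, 0.01% Tween 20. Started with 1 mM NAD+ and 30 uM prostaglandin E2; NADH fluorescence (360/450 nm) read 5 times over 30-s intervals, last minus first.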
On the % scale 0 is the no-effect control and ±100 the full control effect; potency means the concentration at half of the fitted maximal effect; tags describe the fitted curve by direction and shape.

| SMILES | activity change, negative = inhibition | Potency |
| --- | --- | --- |
| COc1ccc2c(c1)c(CC(=O)Nc1ccc(C(C)=O)cc1)c(C)n2C(=O)c1ccc(Cl)cc1 | inactive: -10.8% |  |
| OC(c1ccccc1)c1nc2ccccc2s1 (stereo unspecified) |  | active: 15.8 µM |
| O=C(Cn1ccc2ccccc2c1=O)NCC1COc2ccccc2O1 (stereo unspecified) |  | inconclusive [inhibitor, partial curve] |
| O=C(NCc1ccco1)C1CCC(CNS(=O)(=O)c2cccc3cccnc23)CC1 (stereo unspecified) |  | active: 20 µM |
| COc1ccc(Cn2c(SCc3cc(C)ccc3C)nc3cc(OC)c(OC)cc3c2=N)cc1 |  | inconclusive [inhibitor, partial curve] |
| Nc1c(C(=O)NCc2cccnc2)sc(=S)n1-c1ccccc1 |  | active: 14.1 µM |
| CCc1cccc(C)c1NC(=O)C1CCCO1 (stereo unspecified) | inactive: -1.04% |  |
| O=C(CCCCCN1C(=O)c2ccccc2C1=O)Oc1ccc2c3c(c(=O)oc2c1)CCC3 |  | inconclusive [inhibitor, partial curve] |
| O=C(c1ccc(Cc2nc3ccccc3[nH]2)cc1)N1CCCCC1 |  | active: 15.8 µM |
| CCOC(=O)c1ccc(NC(=O)CSc2nc(C)cc(=O)[nH]2)cc1 |  | active: 28.2 µM |
| CC1(C)NC(=O)N(CC(O)COc2ccc(-c3ccc(C#N)cc3)cc2)C1=O (stereo unspecified) |  | inconclusive [inhibitor, partial curve] |
| Cc1ccc(/C=N\n2c(-c3ccccc3)n[nH]c2=S)s1 |  | active: 11.2 µM |
| CC(=O)Nc1ccc(N2C(C(C)=O)=NN(c3ccc(Cl)cc3)C2c2sccc2C)cc1 (stereo unspecified) | inactive: -17.6% |  |
| CCOC(=O)CC1C(=O)NCCN1C(=O)c1cc2c(=O)n3ccccc3nc2s1 (stereo unspecified) |  | inconclusive [inhibitor, partial curve] |
| CCOCCCNC(=O)C(c1ccc(C)cc1)N(Cc1ccc2c(c1)OCO2)C(=O)CNC(C)=O (stereo unspecified) | inactive: -7.88% |  |
| O=C(Nc1c(C(=O)O)[nH]c2ccccc12)NC1CCCCC1 |  | inconclusive [inhibitor, partial curve] |
| N#CC1=C(N)SC(N)=C(C#N)C1c1cccc(O)c1 |  | inconclusive [inhibitor, partial curve] |
| N#CC(C#N)=Cc1ccc(OC(=O)c2ccccn2)cc1 | inactive: -8.93% |  |
| CCn1cc(C(=O)O)c(=O)c2cc(F)c(N3CCN(S(=O)(=O)c4ccc(Br)cc4)CC3)cc21 |  | inconclusive [inhibitor, partial curve] |
| O=C(C1CCN(C2CC(=O)N(Cc3ccccc3)C2=O)CC1)N1CCCCCC1 (stereo unspecified) |  | inconclusive [inhibitor, partial curve] |
| O=[N+]([O-])c1ccc(Cl)c(/C=N/n2c(COc3ccccc3)n[nH]c2=S)c1 |  | active: 8.91 µM |
| COc1ccc(C2C(C#N)=C(N)Oc3cc(N)ccc32)cc1OC (stereo unspecified) |  | inconclusive [inhibitor, single point] |
| CCOc1ccccc1Oc1coc2cc(O)ccc2c1=O |  | inconclusive [inhibitor, partial curve] |
| Cn1c(C(=O)N2CCN(Cc3ccc4c(c3)OCO4)CC2)cc2sccc21 |  | inconclusive [inhibitor, single point] |

| SMILES | activity change, negative = inhibition | Potency |
| --- | --- | --- |
| Cc1ccc(CNC(=O)NC2CCCCC2)cc1 |  | inconclusive [inhibitor, single point] |
| O=C(O)c1cccc(N2C(=O)c3cccc(Oc4ccc(Cl)cc4)c3C2=O)c1 |  | active: 25.1 µM |
| O=C1CCC(=O)N1OCCCOc1ccc(Br)cc1Cl |  | active: 17.8 µM |
| CC1(C)CC(=O)c2c(nc3ccccc3c2N)C1 |  | inconclusive [inhibitor, partial curve] |
| O=C(Nc1ccc(N2CCOCC2)c(Cl)c1)c1ccccc1F |  | active: 15.8 µM |
| COc1cccc2cc(C(=O)NCc3ccco3)c(=Nc3ccc(C(=O)O)cc3)oc12 |  | inconclusive [inhibitor, partial curve] |
| COc1ccc(C(=O)O)cc1Nc1cc(C)nc2ncnn12 |  | active: 25.1 µM |
| Cc1noc(C)c1C(=O)N1CCC2(CCCN(C(=O)Nc3cccc(F)c3)C2)CC1 | inactive: -1.55% |  |
| Cc1c(NC(=O)c2c(N)n(-c3ccccc3)c3nc4ccccc4nc23)c(=O)n(-c2ccccc2)n1C |  | inconclusive [inhibitor, single point] |
| COc1cc(OC)c(C2CC(=O)N3CN(c4ccc(C)cc4)CSC3=C2C#N)cc1OC (stereo unspecified) |  | active: 7.08 µM |
| COc1ccccc1N(CC(=O)N/N=C/c1ccc(SC)cc1)S(C)(=O)=O |  | inconclusive [inhibitor, single point] |
| Cc1cccc(NC(=O)c2cc3n(n2)C(C(F)(F)F)CC(c2ccc4c(c2)OCO4)N3)c1 (stereo unspecified) |  | inconclusive [inhibitor, partial curve] |
| COc1ccc2cc(CN(Cc3ccco3)Cc3nnnn3C3CCCCC3)c(=O)[nH]c2c1 | inactive: -10.8% |  |
| CCOC(=O)/C(C#N)=C1\CCCN1CC(N)=S |  | inconclusive [inhibitor, single point] |
| Nc1sc2c(c1C(=O)NC1CCS(=O)(=O)C1)CCCC2 (stereo unspecified) |  | inconclusive [inhibitor, single point] |
| CC1CN(C(=O)CSc2nnc(-c3ccncc3)n2-c2ccccc2)CC(C)O1 (stereo unspecified) |  | inconclusive [inhibitor, partial curve] |
| Cc1cccc(N2CCN(C(=O)c3ccc(CS(=O)(=O)c4ccccc4C)o3)CC2C)c1 (stereo unspecified) | inactive: -1.46% |  |
| O=C(Nc1ccon1)c1ccc(Cl)s1 |  | active: 17.8 µM |
| Cc1cc(O)ccc1N/C=C1\CCCC1=O |  | inconclusive [inhibitor, partial curve] |
| O=C(Nc1nccs1)c1ccc(-c2ccc(Cl)cc2Cl)o1 |  | inconclusive [inhibitor, partial curve] |
| Cc1ccsc1C(=O)OCC(=O)Nc1sccc1C(N)=O |  | inconclusive [inhibitor, single point] |
| Cc1ccccc1C(=O)N/N=C1/SCC(=O)N1Cc1ccc2c(c1)OCO2 |  | inconclusive [inhibitor, partial curve, poor fit] |
| CCOC(=O)CSc1nnc(C)n1N | inactive: -11% |  |
| C/C(N[C@@H]1CSCC1O)=C1/C(=O)CC2[C@@H]1C2(C)C (stereo partly specified) | inactive: -2.82% |  |

| SMILES | activity change, negative = inhibition | Potency |
| --- | --- | --- |
| Cc1ccc(OCCOc2ccc(Br)cc2)c([N+](=O)[O-])n1 |  | active: 10 µM |
| Cc1[nH]n(-c2ncc(-c3ccc(Cl)cc3)s2)c(=O)c1C(c1ccc(Cl)cc1)C(C#N)C#N (stereo unspecified) |  | active: 10 µM |
| O=c1[nH]c(=O)n(-c2ccccc2)c2c1C(C(F)(F)F)(C(F)(F)F)N=C(C1CCCCC1)N2 |  | inconclusive [inhibitor, single point] |
| Cc1cc2cc(CN(CCCN3CCOCC3)C(=O)NC3CCCCC3)c(=O)[nH]c2cc1C |  | inconclusive [inhibitor, partial curve, poor fit] |
| Cc1cc(C)c(S(=O)(=O)Nc2ccc(-c3cn4ccccc4n3)cc2)c(C)c1 |  | inconclusive [inhibitor, partial curve] |
| O=C(CP(=O)(c1ccccc1)c1ccccc1)N/N=C/c1cc(Br)cc(Br)c1O |  | active: 0.141 µM |
| CN(C)c1nc(N2CCN(c3ccc(F)cc3)CC2)c(C#N)c(=O)o1 |  | inconclusive [inhibitor, partial curve, poor fit] |
| Cc1cccc(CNc2ncnc3ccc(-c4ccoc4)cc23)c1 |  | inconclusive [inhibitor, partial curve] |
| COC(=O)c1sccc1N/N=C(\C)c1ccc(F)c(Cl)c1 |  | inconclusive [inhibitor, partial curve] |
| COc1cc(C(=O)NCC(=O)N/N=C(/C)c2cccs2)cc(OC)c1OC | inactive: 2.49% |  |
| CCn1c(/C(C#N)=N/O)nc2ccccc21 |  | active: 35.5 µM |
| COc1ccc(-c2cc(C(=O)N/N=C/c3ccc(O)cc3)[nH]n2)cc1 |  | inconclusive [inhibitor, partial curve] |
| CCC(=O)OCCNc1cc(Sc2nc3ccccc3[nH]2)c2nonc2c1[N+](=O)[O-] |  | active: 7.08 µM |
| Cc1oc(-c2cccs2)nc1CS(=O)CC(=O)NCCc1ccccc1 (stereo unspecified) |  | active: 31.6 µM |
| Cc1cccn2c(=O)c3cc(C#N)c(=O)n(Cc4cccnc4)c3nc12 |  | inconclusive [inhibitor, partial curve] |
| Cc1cc(N=Cc2c(O)n(-c3ccc4c(c3)OCO4)c(=O)c3ccccc23)ccn1 |  | inconclusive [inhibitor, partial curve] |
| COC(=O)c1cc2c(C)cc3ccc(C)cn3c-2c1C(=O)OC | inactive: -20.2% |  |
| CC(=O)OC[C@H]1O[C@H](CCO/N=C(\C)CCN2CCCc3nc(C)c(C)cc32)C=C[C@@H]1OC(C)=O |  | inconclusive [inhibitor, partial curve] |
| COc1ccccc1-c1cc(C(F)(F)F)nc(S(=O)(=O)CCCC(=O)NC(C)C)n1 |  | inconclusive [inhibitor, partial curve] |
| Cc1ccc(C)c(N2CCN(C(=O)c3csc4ccccc34)CC2)c1 | inactive: -10.8% |  |
| COc1ccc(OC)c(NC=C2C(=O)OC3(CCCCC3)OC2=O)c1 |  | inconclusive [inhibitor, partial curve] |
| Cc1ccc(/C=C/C(=O)Nc2ccc(N(C)C)cc2)o1 | inactive: -10.3% |  |
| CCOc1ccc(/C(O)=C2\C(=O)C(=O)N(c3cc(C)on3)C2c2ccccc2OC)cc1 (stereo unspecified) |  | inconclusive [inhibitor, single point] |
